Experimental data taken from the supplement of paper PMC4604168 (melanoma cell lines).
This is one part of the list. Many values rest on one well or one pass, so single values are uncertain.

Legend:
Assay in all cases: cell count relative to DMSO control; melanoma cells; higher = more viable cells
Details in all cases: library dose: standard library concentration; 72 h
A101D = tested on: A101D
A2058 = tested on: A2058
A375 = tested on: A375
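Note: cells treated in 1,536-well plates, then fixed and DAPI-stained, with nuclei counted from automated high-throughput microscope images.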

| Compound | cell count (A101D) [%] | cell count (A2058) [%] | cell count (A375) [%] |
| --- | --- | --- | --- |
| CC(C)C[C@H](NC(=O)[C@H](Cc1ccccc1)NC(=O)c1cnccn1)B(O)O [Bortezomib] + Nc1ncn([C@H]2C[C@H](O)[C@@H](CO)O2)c(=O)n1 [decitabine] (first compound 0.005 µM, partner dose 0.5 µM) | 10.5 | 14.4 | 82.6 |
| Cn1c(=O)n(-c2ccc(C(C)(C)C#N)cc2)c2c3cc(-c4cnc5ccccc5c4)ccc3ncc21 + CC(=O)c1c(C)c2cnc(Nc3ccc(N4CCNCC4)cn3)nc2n(C2CCCC2)c1=O [palbociclib] (first compound 0.02 µM, partner dose 0.2 µM) | 67.9 | 61.6 | 66.3 |
| Cn1c(=O)n(-c2ccc(C(C)(C)C#N)cc2)c2c3cc(-c4cnc5ccccc5c4)ccc3ncc21 + C=CCNC1=C2C[C@@H](C)C[C@H](OC)[C@H](O)[C@@H](C)/C=C(\C)[C@H](OC(N)=O)[C@@H](OC)/C=C\C=C(/C)C(=O)NC(=CC1=O)C2=O [Tanespimycin] (first compound 0.02 µM, partner dose 0.01 µM) | 66.7 | 50.4 | 91.4 |
| Cc1cn(-c2cc(NC(=O)c3ccc(C)c(Nc4nccc(-c5cccnc5)n4)c3)cc(C(F)(F)F)c2)cn1 [nilotinib] + O=C(O)c1ccc2c(c1)nc(Nc1cccc(Cl)c1)c1ccncc12 [CX4945] (first compound 1 µM, partner dose 2 µM) | 74 | 92.3 | 102 |
| Cc1cc(Nc2cc(N3CCN(C)CC3)nc(/C=C/c3ccccc3)n2)n[nH]1 + OCc1c[nH]c2ccccc12 [Indole-3-carbinol] (first compound 0.2 µM, partner dose 4 µM) | 107 | 90.2 | 93.7 |
